A lower IC50 marks a more sensitive line; fits outside the tested doses are given as limits. The AUC spans the tested range (256-fold, ending at the top dose) of the same fit; values near 1 show little effect. For some of these results: An inferred top dose was derived from the fitted curves, not read from the paper. For some of these results: Drugs with an entry number were screened twice under separate entries, and the two screens often disagree.
Assays:
Assay in all cases: Viability of human cancer cell lines after 72 h of drug (GDSC screen)
Parthenolide = compound: C=C1C(=O)O[C@H]2[C@H]1CC/C(C)=C/CC[C@@]1(C)O[C@@H]21 [Parthenolide]; conditions: top dose 5 µM
Description: (§1)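 Human cancer cell lines in 384-well plates, medium with 10% serum, drug for 72 h over a 256-fold dose range (nine 2-fold or five 4-fold steps up to the top dose). Adherent lines were fixed and stained with the nucleic acid dye Syto60, suspension lines read with resazurin; signal relative to control wells, capped at 0 and 100%. One two-parameter sigmoid per drug and line, fitted in a mixed model over all curves with the slope shared within a line.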

PAC-1 = compound: C=CCc1cccc(/C=N/NC(=O)CN2CCN(Cc3ccccc3)CC2)c1O [PAC-1]; conditions: top dose 2.56 µM
Description: as §1

KIN001-135 = compound: COc1cc2ncn(-c3cc(OCc4ccccc4S(C)(=O)=O)c(C#N)s3)c2cc1OC [KIN001-135]; conditions: top dose 5 µM; top dose inferred
Description: as §1

BMS-708163 = compound: NC(=O)[C@@H](CCC(F)(F)F)N(Cc1ccc(-c2ncon2)cc1F)S(=O)(=O)c1ccc(Cl)cc1 [BMS-708163]; conditions: top dose 5 µM; screen: GDSC drug entry 1072; top dose inferred
Description: as §1

Cell Line | AUC (Parthenolide) | IC50 (Parthenolide) | AUC (PAC-1) | IC50 (PAC-1) | AUC (KIN001-135) | IC50 (KIN001-135) | AUC (BMS-708163) | IC50 (BMS-708163)
MOLP-8 (myeloma, suspension) | 0.814 | 2.6 µM | 0.877 | 2.39 µM | 0.987 | > 5 µM | 0.987 | > 5 µM
MONO-MAC-6 (acute myeloid leukaemia, suspension) | 0.945 | > 5 µM | 0.927 | > 2.56 µM | 0.978 | > 5 µM | 0.983 | > 5 µM
MPP-89 (mesothelioma, adherent) | 0.902 | > 5 µM | 0.98 | > 2.56 µM | 0.978 | > 5 µM | 0.979 | > 5 µM
MRK-nu-1 (breast, suspension) | 0.802 | 2.22 µM | 0.939 | > 2.56 µM | 0.99 | > 5 µM | 0.99 | > 5 µM
MS-1 (small cell lung carcinoma, suspension) | 0.987 | > 5 µM | 0.97 | > 2.56 µM | 0.979 | > 5 µM | 0.987 | > 5 µM
MSTO-211H (mesothelioma, adherent) | 0.99 | > 5 µM | 0.984 | > 2.56 µM | 0.988 | > 5 µM | 0.991 | > 5 µM
MV-4-11 (leukaemia, suspension) | 0.866 | 3.18 µM | 0.96 | > 2.56 µM | 0.983 | > 5 µM | 0.99 | > 5 µM
MY-M12 (leukaemia, suspension) | 0.875 | > 5 µM | 0.939 | > 2.56 µM | 0.976 | > 5 µM | 0.941 | > 5 µM
MZ1-PC (pancreas, adherent) | 0.975 | > 5 µM | 0.885 | > 2.56 µM | 0.979 | > 5 µM | 0.975 | > 5 µM
MZ2-MEL (melanoma, adherent) | 0.927 | > 5 µM | 0.958 | > 2.56 µM | 0.983 | > 5 µM | 0.922 | > 5 µM
MZ7-mel (melanoma, adherent) | 0.951 | > 5 µM | 0.848 | 2 µM | 0.986 | > 5 µM | 0.985 | > 5 µM
Mo-T (hairy cell leukaemia, suspension) | 0.987 | > 5 µM | 0.987 | > 2.56 µM | 0.987 | > 5 µM | 0.987 | > 5 µM
NALM-6 (B-cell leukaemia, suspension) | 0.877 | 3.64 µM | 0.731 | 0.636 µM | 0.99 | > 5 µM | 0.991 | > 5 µM
NAMALWA (Burkitt lymphoma, suspension) | 0.926 | > 5 µM | 0.904 | 2.46 µM | 0.985 | > 5 µM | 0.991 | > 5 µM
